In ChEMBL document CHEMBL1157539, “Thousands of chemical starting points for antimalarial lead identification” (Nature, 2010):
Whole data set: some 13,000 compounds, median “IFI” near 4, cut for the highest 2% near 17. The list shows a part of the results.

assay: GSK_TCMDC: Inhibition Frequency Index (IFI). The number of non-kinase HTS assays where a compound showed > 50 % inhibition, expressed as a percentage of the number of such assays in which the compound was tested (-0 is zero); format: functional

SMILES | IFI
Cc1cc(N2CCC(N(C)C)C2)nc(Nc2ccc(Cl)cc2)n1 (centres undefined) | 1.12%
Cc1ccc(NC(=O)NC2CCN(CCCCCNC(=O)/C=C/c3ccc(Cl)c(Cl)c3)CC2)cc1C | 8%
Cc1nnc(N2C(=N)SC(=Cc3ccc(-c4ccc(OC(F)(F)F)cc4)o3)C2=O)s1 | 10.7%
CCN(CC)CCCC(C)Nc1c(-c2ccc(Br)cc2)cnc2ccccc12 (centres undefined) | 1.43%
O=C(Nc1ccc(Cl)cc1)N[C@H]1CCN(Cc2ccc(OCCCN3CCCCC3)cc2)C1 | 7.14%
COc1cc(NC(=O)/C=C/c2cc3ccccc3n2C)ccc1OCCN(C(C)C)C(C)C | 2.07%
Cc1cc2ccccc2n1CC(=O)N1CC(C(=O)N2CCCCC2)Oc2ccccc21 (centres undefined) | 2.86%
O=C(Nc1ccc(OC2CCN(Cc3ccc(F)cc3)C2)c(Cl)c1)c1ccoc1 (centres undefined) | 2.99%
O=C(NCCNc1ccnc2cc(Cl)ccc12)c1ccccc1F | 2.9%
CCNC(=O)Nc1cccc(-c2cccc(-c3nc4cc(C(F)(F)F)ccc4[nH]3)c2)c1 | 4.04%
O=S(=O)(Nc1ccc(CCN2CCC(N3CCCCC3)CC2)cc1)c1cccc(C(F)(F)F)c1 | 4.69%
CCN(CC)S(=O)(=O)c1ccc(C(C)NC(=O)c2ccccc2COc2ccccc2)cc1 (centres undefined) | 2.27%
CC(=O)/N=C1\N=C(NC(C)=O)NC(C)(C)N1OCCCOc1ccc(Cl)c(Cl)c1 | 3.6%
Oc1ccc(CCNCCCCCCNCCc2ccc(Cl)c3ccccc23)cc1O | 5.34%
CN1CCC(C(=O)Nc2ccc(-c3cccc(-c4nc5cc(F)ccc5[nH]4)c3)cc2)CC1 | 2.61%
FC(F)(F)c1ccc(Nc2nnnc3ccccc23)cc1 | -0%
CCCc1cc(OC)c(C[C@H]2c3cc(O)c(Cl)cc3CCN2C)cc1OC | 2.82%
CC(=O)c1cccc(NC(=O)NC2CCN(c3ccnc(Nc4ccc(F)cc4)n3)C2)c1 (centres undefined) | 6.15%
FC(F)(F)c1ccc2[nH]c(-c3cccc(-c4cccc(CNCC5CCCO5)c4)c3)nc2c1 (centres undefined) | 6.8%
O=C(CCc1c[nH]cn1)Nc1ccc(-c2ccc(-c3nc4ccccc4[nH]3)cc2)cc1 | 3.51%
COc1ccc(Cl)cc1N1CCN(CCCNC(=O)c2ccc(-c3nc4cc(Cl)c(F)cc4[nH]3)c(F)c2)CC1 | 0.72%
O=C(/C=C/c1ccc(Cl)c(Cl)c1)NCCCCCN1CCC(NC(=O)Nc2ccc(Cl)c(Cl)c2)CC1 | 15.8%

SMILES | IFI
CCCn1c(Sc2ccc(C#N)c([N+](=O)[O-])c2)nnc1-c1ccc(Cl)cc1 | 4.17%
CC(C)C1=C[C@H]2C[C@]3(C4OCCO4)[C@@H]4CC[C@@H](C)[C@H]4C[C@@]2(COCc2cccc(C#N)c2)[C@]13C(=O)OC(c1ccccc1)c1ccccc1 | 2.33%
COc1ccc2nccc(N3CCC(CCNCc4ccc5c(n4)NC(=O)CS5)CC3)c2c1 | 8.89%
CCOCc1cnc(C)nc1CNC(=O)c1c(C)[nH]c2ccc(C)cc12 | 1.47%
Cc1cc(N2CCCC2)nc(Nc2ccc(NC(=O)C(C)C)cc2)n1 | 7.84%
NC1CCN(c2cnn(Cc3cccc(NC(=O)Nc4ccc(-c5ccccc5)cc4)c3)c(=O)c2Cl)CC1 | 8.84%
O=C(Nc1cc(C(F)(F)F)cc(C(F)(F)F)c1)Nc1cc(C(F)(F)F)cc(C(F)(F)F)c1 | 1.47%
CCCCC(N)COc1cccc2c(-c3ccncc3)c(-c3cccc(NC(=O)Nc4ccccc4)c3)nn12 (centres undefined) | 14.1%
CC1(C)N=C(N)N=C(NOCCCCCCONC2=NC(N)=NC(C)(C)N2)N1 | 1.44%
Cc1onc(-c2ccc(Cl)cc2)c1-c1ccnn1S(=O)(=O)c1ccc(Cl)cc1 | 0.72%
NS(=O)(=O)c1ccc(CNc2ccc3ncc(-c4ccc(OC(F)(F)F)cc4)n3n2)cc1 | 3.05%
CCNc1cc(C(=O)N[C@@H](Cc2ccccc2)[C@H](O)CNCc2cc(OC)cc(OC)c2)cc(N2CCCS2(=O)=O)c1 | 2.16%
Cc1cccc(CC(=N)NCCCCCCNC(=N)Cc2cccc(C)c2)c1 | 3.73%
CC(C)(C)c1ccc(NC(=O)c2ccc(CN3CCCN(Cc4ccsc4)CC3)cc2)cc1 | 13.8%
FC(F)(F)c1ccc2[nH]c(-c3ccc(-c4ccc(CNCCN5CCNCC5)cc4)s3)nc2c1 | 12.8%
COc1ccc(NC(=O)CCNc2cc(C)nc(NCCc3ccc(F)cc3)n2)cc1 | 4.88%
COc1ccc2nccc([C@@H](O)CN3CCC(NC(=O)c4ccc5nc(-n6cccc6)sc5c4)CC3)c2c1 | 0.74%
CN1CCN(Cc2ccc(-c3cccc(-c4nc5ccccc5[nH]4)c3)cc2)CC1 | 2.88%
CCNC(=O)c1ccc2c(c1)c(C)c(C)n2Cc1ccc(F)cc1 | 4.17%
COc1ccc2ncc(Cl)c(CCN3CCC(NCc4ccc5c(n4)NC(=O)CO5)CC3)c2c1 | 3.68%
CC(C)n1cc2c(ccc3nc(N)nc(N)c32)n1 | 3.52%
N#Cc1cc(C(=O)c2cc(Br)ccc2O)cn(C2CCCCC2)c1=O | 2.78%
